# Data published in PMC12136788.
# This is one part of the list.
# T1: UNK ZnF1-3 (human, UniProt Q9C0B0 31-174)
# T1 sequence: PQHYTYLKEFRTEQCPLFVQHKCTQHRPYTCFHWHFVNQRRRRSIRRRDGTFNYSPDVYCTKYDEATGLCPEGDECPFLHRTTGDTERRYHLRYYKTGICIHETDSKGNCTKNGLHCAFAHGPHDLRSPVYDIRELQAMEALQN
# B1: chr18:10010065:10010066:-_ENSMUSG00000047879_ENSMUST00000092096|mus_hu|motif|central (ssRNA)
# RNA: GGGAGUUCUACAGUCCGACGAUCUAGAAUAAUAGGUGGAAUACUGGAAGAAGUUUUAUCCAUGGAAUCAAACAAAUCUCGGAGGGCUGCAGUAAUAUACUGCGCUGAAGCCAUUUCCCCUGAAGCUCUCAAGGCACCUGCAUACAACAGAGGAUUGAGCAUCA
# B2: 9989091_9989211_2070_3pUTR_ENSMUSG00000040396_ENSMUST00000048216|mouse|control|control (ssRNA)
# RNA: GGGAGUUCUACAGUCCGACGAUCUUAGCUGAAGAUUCACAAACUGACAGGCUAAAAUUUCAUCUGCAACCAAAAUCACUAAUGUUAAAAAGUUCACUAUACAAAGAAAGCUGUAGUAAGAUGCUAACCUCCUAUCUCACUAGCCAACAGAGGAUUGAGCAUCA
# B3: 100011793_100013483_2660_CDS_ENSMUSG00000023026_ENSMUST00000100203|mouse|control|control (ssRNA)
# RNA: GGGAGUUCUACAGUCCGACGAUCCACAAUGCGCUCGUCAUAAAACACAGACACAGAAAACACAGCAAUUCUUCCUCGAUAGACGGUCUUUAUGGACUCCACAGCCAAUCCAGUAGCAACAAUGUCAUCGGCGUUAUGUCUUCGCAACAGAGGAUUGAGCAUCA
# B4: 31483727_31486627_2202_CDS_ENSG00000113360_ENST00000513349|human|control|control (ssRNA)
# RNA: GGGAGUUCUACAGUCCGACGAUCCAAAGGACCUUUAAGAUUCCAGUCAUAUAAUUCCAAAAUAUCUCUGAAUAGGAACAGUGAAAAGAGUUCAAGCCCUUUCACACAAAAAUUCUCCGGCAUCAUCUCUUCAAUGAAAUGAAUCAACAGAGGAUUGAGCAUCA
# B5: chr4:76721835:76721836:+_ENSG00000138768_ENST00000264904|hu_mus|hu_hu_hu_mus_True|68_88 (ssRNA)
# RNA: GGGAGUUCUACAGUCCGACGAUCGUUUGGCUGGGGUUUCUGAGACGUCUGGAAUACUAACUCAUGUUGCUAAUAAAAUCCUAGUUUCUCUAUGAAAUUCUCUUUGCCAAUCCUCUUCUCUAUUAGUUGCUUUAGUUUCUCUUUCAACAGAGGAUUGAGCAUCA
# B6: 114964141_114967215_2001_CDS_ENSG00000197323_ENST00000358465|human|control|control (ssRNA)
# RNA: GGGAGUUCUACAGUCCGACGAUCGCUGGUGGGACCUCGGUUUGCAUUUGCCAUAGUUGCUGUAGUAGGGCUCGUUGGGUUGAUUGUGGUGUUGUGUACCGAUACUACGGGAAAGGGUCCAGCAUGCCCUGGGUUUGAGUGUUGCAACAGAGGAUUGAGCAUCA
# B7: chr18:35748043:35748044:+_ENSMUSG00000037236_ENSMUST00000166793|perfect_dup|FALSE|FALSE (ssRNA)
# RNA: GGGAGUUCUACAGUCCGACGAUCUGUAUAAAAGAGUGAACACAGCUUACAGUAAAACCCUGUUUUAGGUAUCACAUAGUCUAUACCAACAGGAACAUUAGGCUGAUAUGGUCCGAUUCUAUACUCAUCGGGAAUUGUAUAAUCCAACAGAGGAUUGAGCAUCA
# B8: chr11:86518203:86518204:-_ENSMUSG00000047126_ENSMUST00000103186|perfect_dup|FALSE|FALSE (ssRNA)
# RNA: GGGAGUUCUACAGUCCGACGAUCGAACAGCUCCAGGUGCUCCCUCAUUUUCUGAGGCUUAAAUUUAGAGUAUAGAAUAGCUAAUUCAGUAAACAUUCCCAUGUGAGCUCGCUCAAGUCCCAGUGCUGCUUCCAACAUGGUGAUCAACAGAGGAUUGAGCAUCA
# B9: chr16:94690093:94690094:+_ENSMUSG00000040785_ENSMUST00000117648|mus_hu|mus_mus_mus_hu_True|1_88 (ssRNA)
# RNA: GGGAGUUCUACAGUCCGACGAUCGGGCUGGGAUGACGGACACACAGAUCUUCCCAGAGGGGGAAAAAGUCUUAGUCGAUACUAAUUAAAAAGUGUUAAUGAUUUUUGAAAAUCAGAUUACAUCUAUAAAAGAUGAAAGCACUUCAACAGAGGAUUGAGCAUCA
# B10: 61441815_61442215_1866_3pUTR_ENSG00000126814_ENST00000261249|human|control|control (ssRNA)
# RNA: GGGAGUUCUACAGUCCGACGAUCAACAUUUCCAAUUAAGUGUUUGAAACAAUUUGUGUUUUUUCGUCUGAAAAGGCUUCAGCCGUCCUCUGCCUUUUAAGAGGUGGAUCUUCAUGAUUCUCUGGAUUUCUGGUCUGGUUCUUGCAACAGAGGAUUGAGCAUCA
# B11: 145239554_145239674_443_3pUTR_ENSMUSG00000074182_ENSMUST00000098534|mouse|control|control (ssRNA)
# RNA: GGGAGUUCUACAGUCCGACGAUCUAUCCGCCUCCUGCUUCACUUCCAACACGCCUUUCUCAUCCUUCACCUCGGGCCCGCCCUCCACCUCCUGCUUCACCCACUGGCUGUCCGCAACACCACUGUCUAAAUCCGACCAGUCUACAACAGAGGAUUGAGCAUCA
# B12: chr2:62099399:62099400:-_ENSG00000115484_ENST00000544079|hu_mus|motif|central (ssRNA)
# RNA: GGGAGUUCUACAGUCCGACGAUCGUAGGACUCCAUACCACUCAGUGUUCGGGAGUACUCUGUCAGUCUGAGGGCCAGCUCGGUUUCUGGAGCACCACCUCCUGCAAUAAGAGCUCUUUUCUUUACUAAGCAUCGGAUGACACACAACAGAGGAUUGAGCAUCA
# B13: 143837486_143841914_1812_CDS_ENSMUSG00000045078_ENSMUST00000053498|mouse|control|control (ssRNA)
# RNA: GGGAGUUCUACAGUCCGACGAUCCAGCUCCUCAAAUGGAAACUCCCCAUAGCAACAGCGGCAUUCAAUCAGCUGGCCAUCCUUUUGAUACUGUUCUUCAUUCAUCUGCAGGGCGAGCAAGAAGUCUUCAUGCUCUGCCAUCUCCAACAGAGGAUUGAGCAUCA
# B14: chr1:89688648:89688649:+_ENSMUSG00000026289_ENSMUST00000027512|mus_mus|FALSE|FALSE (ssRNA)
# RNA: GGGAGUUCUACAGUCCGACGAUCGAGCAGGACAGAGAAUGCUUUCCCAGCCCAGCCUUCAUCAUCACCAGCUCCUAGGUAGGCUUCUCUUACCAACACUGCACUGCACGCACAGGCAGUGGCUGGCCUCACCACUCUCUGCUCCAACAGAGGAUUGAGCAUCA
# B15: chr14:76904430:76904431:+_ENSMUSG00000022010_ENSMUST00000022587|mus_hu|motif|central (ssRNA)
# RNA: GGGAGUUCUACAGUCCGACGAUCUGCAGCCAAAAACACCCUCGUGGAAAAAAAGAGGGAACACCAGCAGCCUUGUAUAAGCGGGAUAAAAUCUUCUGGCUUUCCGCAGCCCAGGGAGAAACAGAAAACGGCAGCCCUAAUUUACAACAGAGGAUUGAGCAUCA
# B16: chrX:76855959:76855960:-_ENSG00000085224_ENST00000373344|hu_hu|FALSE|FALSE (ssRNA)
# RNA: GGGAGUUCUACAGUCCGACGAUCUGAGGCUAUAAAUUCAUCCAUACUGUCUUCAUCAAAAUAACCCUUAUUUUCUUUGCUAAUGUAGUCUAGCUGCAAACACCAAGGAUGAGUCCAUAUUCUACUUAACAUCUGAAAAUCUUGCAACAGAGGAUUGAGCAUCA
# B17: chr8:108054885:108054886:-_ENSMUSG00000013160_ENSMUST00000013304|mus_hu|FALSE|FALSE (ssRNA)
# RNA: GGGAGUUCUACAGUCCGACGAUCGGAGCGCUGGUGCAGCGUGCCUGUGAUGAGCAGGAUCACGUUGUCGAUCAUGUAACUGUAAGUAAUGAAGUCUAGGAAGCUGGCGAGUGGCUCAUAGGCAUGGUUCCUCAUGUGGCGGAACAACAGAGGAUUGAGCAUCA
# B18: chr6:108204272:108204273:-_ENSG00000025796_ENST00000369002|hu_hu|motif|central (ssRNA)
# RNA: GGGAGUUCUACAGUCCGACGAUCUUGCUCUCUAUCAGAGUCUCUGUCACUACCAUCAUCUUUCUCACUUUGGGAAUCUCGGUUGGUUUCUUCUUCUUCAGAAUCACUGCCCUUAUCUGAAACUUCUUCUUCAUCUUCCUUUACCAACAGAGGAUUGAGCAUCA
# B19: chr7:135850644:135850645:-_ENSMUSG00000048170_ENSMUST00000057557|mus_hu|FALSE|FALSE (ssRNA)
# RNA: GGGAGUUCUACAGUCCGACGAUCAUACAAGUGUUCUGUGAAGGUACUAUUCCGUGGGCAACCACUCAAGUUAACUGUAAAUUUUCCUAGUGGAAGGACAUCUCUUCUUGUAUAUACUGUGGAGAUGAGAUGUAAUAUAAGGUACAACAGAGGAUUGAGCAUCA
# B20: chr4:144460044:144460045:+_ENSG00000153147_ENST00000283131|hu_mus|hu_hu_hu_mus_False|8_48 (ssRNA)
# RNA: GGGAGUUCUACAGUCCGACGAUCACGGUCCAUAGCCUGAAGAUCAACUUGCGGAUUCCAAUCUGAGUCAUAUAAAAUGACUACAUCAGCAGUCGCAAGAUUGAUGCCCAGACCACCAGCACGUGUGCUUAACAUGAAUACAAACAACAGAGGAUUGAGCAUCA
# B21: chr9:111175386:111175387:+_ENSMUSG00000046785_ENSMUST00000060711|mus_mus|FALSE|FALSE (ssRNA)
# RNA: GGGAGUUCUACAGUCCGACGAUCCUCAGUUAGUAGAGGCUGAAACUCCGGUCGCCUAACACCUCUGGUCUUAAUCAUAACUACCCAUUCAGAUAUGGUAUUUAUGAUCUGAUUAAUAUCAACAUCAUAAGAACUCAACAGUUCCAACAGAGGAUUGAGCAUCA
# B22: chr2:47387792:47387793:-_ENSG00000143933_ENST00000272298|hu_hu|FALSE|FALSE (ssRNA)
# RNA: GGGAGUUCUACAGUCCGACGAUCUUAGGACAAUGACAGUAAGAUAAGGGAAGAAAACAUGGAGGAAUGAAGUCCUAAUUACUAUACAUGCAUAUUUUUUUGACAGUAGGGAGAAACCUUUUACAGAUAAGUUACAAACAAAGACAACAGAGGAUUGAGCAUCA
# Molecular target: T1, UNK ZnF1-3
# Assay: nsRBNS (natural sequence RNA bind-n-seq); RBNS binding buffer (assumed for nsRBNS): 25 mM Tris pH 7.5, 150 mM KCl, 3 mM MgCl2, 0.01% Triton X-100, 500 ug/ml BSA, 20 U/ml SUPERase-In, 4 C; UNK is unkempt and MSI1 is Musashi-1; names of the RNAs are library labels; protein concentration not given here; high values mean tight binding
row,Binder,binding signal [enrichment R]
1,B1,1.43
2,B2,1.01
3,B3,1.25
4,B4,0.931
5,B5,0.49
6,B6,1.08
7,B7,0.418
8,B8,0.821
9,B9,1.19
10,B10,0.467
11,B11,1.1
12,B12,1.22
13,B13,1.41
14,B14,1.08
15,B15,2.45
16,B16,0.883
17,B17,0.971
18,B18,0.449
19,B19,1.34
20,B20,0.63
21,B21,0.684
22,B22,2.13
